# No constants are given. Whether binding was seen depends on the method and setting. Binding seen in cells or lysates may run through a third protein. Some entries that bind do so weakly or less than the wild type.
# Chains of the proteins cited; added tags and fusions are not shown. Lines headed by an entry give the natural chain unless they say otherwise; changes in a name come on top. A line that says so, or that is headed by a name, gives the form on record, which may keep a tag or linker. Residues count along the entry.
# UniProt Q969L4: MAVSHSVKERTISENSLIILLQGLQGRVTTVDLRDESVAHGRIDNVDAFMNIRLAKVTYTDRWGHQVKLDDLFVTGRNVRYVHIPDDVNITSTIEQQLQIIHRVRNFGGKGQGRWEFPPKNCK
# UniProt P83369: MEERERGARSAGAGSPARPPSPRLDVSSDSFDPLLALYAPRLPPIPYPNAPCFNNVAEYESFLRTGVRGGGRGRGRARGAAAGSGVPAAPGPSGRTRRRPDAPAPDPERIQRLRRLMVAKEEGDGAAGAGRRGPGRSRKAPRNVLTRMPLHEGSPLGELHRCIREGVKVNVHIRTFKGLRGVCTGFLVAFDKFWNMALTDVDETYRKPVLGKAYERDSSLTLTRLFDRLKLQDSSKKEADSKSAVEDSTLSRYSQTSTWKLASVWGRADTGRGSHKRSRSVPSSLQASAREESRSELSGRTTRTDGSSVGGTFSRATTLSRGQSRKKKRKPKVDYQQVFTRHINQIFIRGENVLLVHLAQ
# MBP-168N (Lsm11 amino acids 1-168 fused amino-terminally to MBP): residues 1-168 of P83369
# MBP-105N (Lsm11 amino acids 1-105 fused amino-terminally to MBP): residues 1-105 of P83369
# MBP-65N (Lsm11 amino acids 1-65 fused amino-terminally to MBP): residues 1-65 of P83369
# MBP-Δ40 (Lsm11 amino acids 41-169 fused amino-terminally to MBP): residues 41-169 of P83369
# MBP-168N R72,74A (P83369, form named): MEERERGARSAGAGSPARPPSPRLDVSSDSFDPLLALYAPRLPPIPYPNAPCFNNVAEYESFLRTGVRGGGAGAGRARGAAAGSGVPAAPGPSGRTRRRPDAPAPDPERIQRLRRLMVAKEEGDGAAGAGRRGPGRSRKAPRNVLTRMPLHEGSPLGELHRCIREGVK
# MBP-168N R72A (P83369, form named): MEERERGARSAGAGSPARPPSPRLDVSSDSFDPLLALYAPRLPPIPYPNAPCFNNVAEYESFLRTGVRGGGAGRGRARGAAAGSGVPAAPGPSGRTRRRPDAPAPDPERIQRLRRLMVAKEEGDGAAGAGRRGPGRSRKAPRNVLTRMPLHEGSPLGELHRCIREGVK
# MBP-168N R74A (P83369, form named): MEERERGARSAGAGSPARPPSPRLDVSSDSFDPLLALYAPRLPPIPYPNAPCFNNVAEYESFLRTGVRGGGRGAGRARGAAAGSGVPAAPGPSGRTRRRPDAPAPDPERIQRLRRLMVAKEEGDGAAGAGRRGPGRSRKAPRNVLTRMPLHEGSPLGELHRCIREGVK
# UniProt Q9BQA1: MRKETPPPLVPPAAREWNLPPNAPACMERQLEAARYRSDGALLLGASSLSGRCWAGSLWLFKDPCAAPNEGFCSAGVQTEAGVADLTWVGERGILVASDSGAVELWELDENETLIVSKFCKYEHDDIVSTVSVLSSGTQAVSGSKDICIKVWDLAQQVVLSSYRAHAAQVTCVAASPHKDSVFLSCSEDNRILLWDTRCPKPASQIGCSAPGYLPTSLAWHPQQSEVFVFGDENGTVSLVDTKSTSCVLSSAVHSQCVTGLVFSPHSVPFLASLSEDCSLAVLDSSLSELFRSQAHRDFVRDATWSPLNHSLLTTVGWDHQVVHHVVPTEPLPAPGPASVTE
# UniProt O14744: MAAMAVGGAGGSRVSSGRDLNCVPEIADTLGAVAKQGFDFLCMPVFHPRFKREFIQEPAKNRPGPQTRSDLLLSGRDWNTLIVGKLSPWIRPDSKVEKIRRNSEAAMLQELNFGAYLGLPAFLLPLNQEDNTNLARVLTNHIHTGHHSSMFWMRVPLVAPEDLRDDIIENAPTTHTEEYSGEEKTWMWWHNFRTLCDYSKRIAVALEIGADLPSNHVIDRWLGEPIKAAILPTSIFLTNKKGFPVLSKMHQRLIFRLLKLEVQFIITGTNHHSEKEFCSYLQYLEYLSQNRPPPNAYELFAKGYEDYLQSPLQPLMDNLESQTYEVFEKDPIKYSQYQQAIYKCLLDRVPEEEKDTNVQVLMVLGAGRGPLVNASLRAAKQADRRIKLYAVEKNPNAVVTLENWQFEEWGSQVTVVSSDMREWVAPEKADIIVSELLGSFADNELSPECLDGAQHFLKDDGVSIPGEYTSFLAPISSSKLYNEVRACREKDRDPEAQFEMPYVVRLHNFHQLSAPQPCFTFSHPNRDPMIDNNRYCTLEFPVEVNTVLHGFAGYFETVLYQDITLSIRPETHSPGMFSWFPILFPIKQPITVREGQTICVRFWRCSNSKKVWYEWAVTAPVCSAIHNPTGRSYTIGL
# UniProt P54105: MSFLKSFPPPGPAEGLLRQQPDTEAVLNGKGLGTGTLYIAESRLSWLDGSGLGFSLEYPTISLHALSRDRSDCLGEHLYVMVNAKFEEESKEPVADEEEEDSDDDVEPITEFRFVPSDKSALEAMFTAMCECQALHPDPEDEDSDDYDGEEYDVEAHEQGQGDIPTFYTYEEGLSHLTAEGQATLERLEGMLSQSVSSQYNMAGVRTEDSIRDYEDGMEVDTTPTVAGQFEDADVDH
# UniProt Q61189: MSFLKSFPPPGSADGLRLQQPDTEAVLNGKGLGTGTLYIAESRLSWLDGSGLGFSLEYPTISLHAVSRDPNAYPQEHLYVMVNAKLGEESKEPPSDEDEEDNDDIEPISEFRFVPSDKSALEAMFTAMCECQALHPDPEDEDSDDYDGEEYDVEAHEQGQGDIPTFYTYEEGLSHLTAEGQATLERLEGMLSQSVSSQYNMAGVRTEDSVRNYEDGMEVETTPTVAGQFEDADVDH
# How the values were obtained:
# [1] = molecular target: T1, Lsm10-MBP/Lsm11 heterodimer (wild-type, full-length Lsm11) (human) (UniProt Q969L4+P83369); assay: co-IP; recombinant heterodimer incubated 1 h on ice with 750 µL HeLa or mouse myeloma cytoplasmic extract, precipitated with rabbit α10/11 serum on protein A beads; silver staining, mass spectrometry, western blotting; only the target purified
# [2] = molecular target: T2, Lsm10/11ΔL heterodimer (MBP-Lsm10 with Lsm11 lacking the internal loop, amino acids 211-322) (human) (UniProt Q969L4+P83369); assay: as above
# [3] = molecular target: T1, Lsm10-MBP/Lsm11 heterodimer (wild-type, full-length Lsm11) (human); assay: pull-down; MBP-Lsm10/Lsm11 heterodimers or MBP-fused Lsm11 fragments incubated with HeLa or mouse myeloma cytoplasmic extract (Fig. 5A: without or with SmE/F/G heterotrimer), collected on amylose beads; silver or Coomassie staining, western blotting; only the target purified
# [4] = molecular target: MBP-105N (Lsm11 amino acids 1-105 fused amino-terminally to MBP) (human) (UniProt P83369); assay: as above
# [5] = molecular target: MBP-65N (Lsm11 amino acids 1-65 fused amino-terminally to MBP) (human) (UniProt P83369); assay: as above
# [6] = molecular target: MBP-Δ40 (Lsm11 amino acids 41-169 fused amino-terminally to MBP) (human) (UniProt P83369); assay: as above
# [7] = molecular target: T1, Lsm10-MBP/Lsm11 heterodimer (wild-type, full-length Lsm11) (human); assay: co-IP; recombinant heterodimer incubated with mouse myeloma nuclear extract, precipitated with rabbit α10/11 serum on protein A beads; silver staining; only the target purified
# [8] = molecular target: T2, Lsm10/11ΔL heterodimer (MBP-Lsm10 with Lsm11 lacking the internal loop, amino acids 211-322) (human); assay: pull-down; MBP-Lsm10/Lsm11 heterodimers or MBP-fused Lsm11 fragments incubated with HeLa or mouse myeloma cytoplasmic extract (Fig. 5A: without or with SmE/F/G heterotrimer), collected on amylose beads; silver or Coomassie staining, western blotting; only the target purified
# [9] = molecular target: MBP-168N (Lsm11 amino acids 1-168 fused amino-terminally to MBP) (human) (UniProt P83369); assay: as above
# MBP-168N R72,74A (human) = MBP-168N R72,74A (human) (UniProt P83369); assay: as above
# MBP-168N R72A (human) = MBP-168N R72A (human) (UniProt P83369); assay: as above
# MBP-168N R74A (human) = MBP-168N R74A (human) (UniProt P83369); assay: as above
binding [1],binding [2],binding [3],binding [4],binding [5],binding [6],binding [7],binding [8],binding [9],"binding (MBP-168N R72,74A (human))",binding (MBP-168N R72A (human)),binding (MBP-168N R74A (human)),Substance
binds,binds,binds,binds,no binding,binds,–,–,–,–,–,–,"MEP50, endogenous, HeLa (from UniProt Q9BQA1 1-342)"
binds,binds,binds,binds,no binding,binds,–,–,–,–,–,–,"PRMT5, endogenous, HeLa (from UniProt O14744 1-637) (enzyme)"
binds,binds,binds,binds,no binding,binds,–,–,–,–,–,–,"pICln, endogenous, HeLa (from UniProt P54105 1-237)"
–,binds,binds,binds weakly,–,–,binds,binds,binds weakly,no binding,binds,binds weakly,"pICln, endogenous, mouse myeloma cells (from UniProt Q61189 1-236)"
